# In the supplement of paper PMC3334620:
# In all, about 33,000 sequences were measured (“E-score (-0.5 to 0.5)”: median about -0.036, highest 2% from about 0.37 on). Some of the results follow.
# Molecular target: T1, Yer064c (UniProt P40041)
# T1 sequence: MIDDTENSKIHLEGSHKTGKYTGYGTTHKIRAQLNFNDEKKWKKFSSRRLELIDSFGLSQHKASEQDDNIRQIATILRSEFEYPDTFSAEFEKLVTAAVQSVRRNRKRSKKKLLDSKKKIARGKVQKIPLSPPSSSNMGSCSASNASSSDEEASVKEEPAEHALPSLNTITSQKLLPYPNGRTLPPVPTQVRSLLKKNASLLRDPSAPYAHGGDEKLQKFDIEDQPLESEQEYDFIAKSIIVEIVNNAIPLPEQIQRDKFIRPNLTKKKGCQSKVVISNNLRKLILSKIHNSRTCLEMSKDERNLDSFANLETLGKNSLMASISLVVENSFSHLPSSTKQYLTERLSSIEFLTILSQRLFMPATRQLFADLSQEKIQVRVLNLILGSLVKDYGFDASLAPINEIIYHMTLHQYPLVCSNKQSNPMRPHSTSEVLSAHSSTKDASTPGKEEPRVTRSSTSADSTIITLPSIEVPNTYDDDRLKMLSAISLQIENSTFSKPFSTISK
# Experiment: PBM E-score (8-mer binding enrichment) (E-score (-0.5 to 0.5)); higher = stronger / more preferred TF binding; most listed sequences are background and not binding sites
# Details: protein concentration: 200 nM; construct: GST-full length
# How it was run: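 Universal all-10-mer Agilent arrays, double-stranded by primer extension on fresh or once-stripped slides, were probed with about 100-200 nM GST-tagged yeast transcription factors made by PURExpress. Fluorescent anti-GST detected bound protein, and masliner normalised the scans. E-scores from the Universal PBM Analysis Suite were given to each ungapped eight-base word pooled with its reverse complement.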
row,Sequence,PBM E-score
1,GCGCTTCA,-0.248
2,AAGGGGCG,-0.183
3,AAGACCAA,0.0859
4,GAGACTGC,0.217
5,CGAAGCTA,0.0165
6,GCAACAAA,-0.0156
7,CGCCTCTA,-0.162
8,CCGACAGA,0.0526
9,CCCCACAA,-0.0398
10,ATGCTTGC,-0.259
11,ACATTACG,-0.0962
12,CTGTACAG,-0.179
13,AGGATCCT,-0.0354
14,CTTTGGGA,-0.039
15,CGGCGCCC,-0.232
16,CGGCTCTC,-0.115
17,ATCGGGGA,0.0181
18,AGCGGATA,-0.203
19,GAGCTCAA,0.122
20,ACGTTCCT,-0.057
21,CTAACAAG,-0.0397
22,GGAATACA,0.05
23,ACCAAGAG,-0.00272
24,AGAGGCGC,-0.296
25,ACGACCAC,0.0554

row,Sequence,PBM E-score
1,ACGCCCCT,-0.282
2,GGCTAGAA,0.00723
3,AGAGTGAA,0.0764
4,CTCGCTTC,-0.0274
5,ACGGTAGC,-0.121
6,ACATATGG,0.116
7,CTACAACC,-0.0167
8,GGCGCAGA,-0.0877
9,AACGTCGA,0.146
10,CAAACGTG,0.156
11,TAGCATAA,-0.171
12,CACAATAG,0.112
13,GGCCGGAA,-0.146
14,AAGACGGG,-0.129
15,AGACGGAC,0.0509
16,GACCGTAA,0.11
17,CAGCAGTA,0.0707
18,GCATTACC,-0.18
19,CAGCTCTC,-0.0938
20,AAATCTTG,0.0238
21,TAGGACTA,0.357
22,ATCCCCCA,-0.244
23,GCCTAAGC,-0.115
24,ACTGGAAG,0.0296
25,GAACGCCC,-0.335

row,Sequence,PBM E-score
1,ATGTGATA,-0.0851
2,AATTACGT,0.0933
3,AATTTGGC,-0.101
4,ACGAGCGC,-0.267
5,ATTCGCCG,0.0604
6,CGACACCA,-0.13
7,CGCGTAAG,0.0281
8,CAATTATC,0.0349
9,GTAGCGAA,-0.0282
10,CAGCGCCA,-0.141
11,TCTTTAAA,0.171
12,AGGGTTTA,0.0489
13,ATTGAGGG,-0.27
14,CCGCTCCC,-0.282
15,AGACTCAC,0.457
16,ATAAGTAT,0.0353
17,ATATCTAG,0.117
18,CAGGTTAG,0.00036
19,CTTCGTTA,0.176
20,CGGCCGCC,-0.157
21,AATTGTGC,0.00102
22,CCTATCGA,-0.153
23,CGTCAGGC,-0.19
24,GAGGCCGA,-0.0783
25,CTCCCACC,-0.12

row,Sequence,PBM E-score
1,CGTGCTCA,0.0413
2,CCACGACG,-0.0728
3,GATGCCAA,-0.13
4,CGTCTAGA,0.00747
5,ACTTTATG,0.129
6,GCGTACGA,0.057
7,TAATAGGA,0.0287
8,TGACCACA,0.0748
9,GGCCGGCA,-0.254
10,ATTCCAAA,0.0558
11,CGCACTCA,0.0489
12,CGATAGAG,-0.0375
13,ACTTCTAG,-0.0679
14,AAACATAG,0.00384
15,AAGTGCGG,-0.109
16,CCATTGTC,-0.129
17,ACATGTTC,-0.16
18,GCCAGTAA,-0.0791
19,ACAATAGA,0.0208
20,AGCCGTAG,0.0413
21,ATTGGGGG,-0.275
22,CAGATCCG,-0.0473
23,AAATAGCC,-0.0276
24,CACAACTG,-0.113
25,CTTGGAAC,0.00351

row,Sequence,PBM E-score
1,GGCAGCAC,-0.22
2,GGTCCGGA,-0.148
3,CGATGTTC,-0.274
4,GCGGCGCA,-0.231
5,ATTGGTGC,-0.162
6,GAACAAGA,0.0948
7,TAATAATA,0.106
8,CTATACAA,0.0789
9,CGGAGCGC,-0.163
10,GTTCTGAA,0.0639
11,TAGGCTCA,-0.0588
12,CAGCACCA,-0.141
13,TCTTGACA,0.113
14,ACTAAGTG,0.289
15,CGGGCGTA,-0.211
16,CGGTCTAA,0.0445
17,GAGGAGCA,-0.169
18,ATCGTTTC,0.0724
19,CCAGAACA,-0.121
20,GCAAAGCC,-0.263
21,AAAACTAG,-0.0645
22,CACGGTAC,0.193
23,CATTATCC,-0.136
24,AAAGATGG,-0.153
25,GCGTTCTA,-0.149

row,Sequence,PBM E-score
1,GAGCATGA,0.141
2,GAAGTATA,-0.0537
3,CCTGCACC,-0.265
4,CAATCTGA,0.161
5,CAGCTCAC,0.123
6,CTTTGTCC,-0.195
7,ACCCCGCC,-0.11
8,ACCAACAG,-0.155
9,CCCGCCCA,-0.0709
10,AACCTGGT,0.0722
11,ACTAGCCT,0.145
12,ACACCCCT,0
13,ACCAGGAA,-0.0771
14,GCGTACCA,-0.257
15,AGTGGCGC,-0.289
16,GGCAGACC,-0.194
17,AGGGTGTG,-0.00223
18,GAGTCGGC,0.412
19,ACCTTCGT,-0.095
20,CGTCAGAA,-0.00133
21,CTCTTTCA,0.146
22,CTCCATGC,0.0157
23,CCGATCGG,-0.303
24,AATCCGCC,-0.0644
25,AAATGCTT,-0.157

row,Sequence,PBM E-score
1,ATCCAGAT,-0.0843
2,TCAGCACA,0.0939
3,ACGGATGA,0.248
4,CCCCTTCA,-0.223
5,ACGTTAGT,0.304
6,GTTCGGAA,-0.0148
7,GGCTAGGA,-0.0539
8,GATCCATA,0.108
9,ACTGACTC,0.461
10,GAACGCCA,-0.19
11,TGCTTGAA,0.159
12,ACCCGGTA,0.00231
13,CTGGGTTA,0.187
14,CTGAGGTC,0.00815
15,CAAGTGAC,0.191
16,CCTCTTGC,-0.247
17,GAGGTTCC,-0.0606
18,AAAGCTAT,-0.0843
19,CTGGAAGC,-0.23
20,CATAGAGC,-0.112
21,AATGCACC,-0.162
22,AATTAACC,0.0197
23,ATACGACA,0.144
24,ATAAGAAT,0.23
25,AGCAACGC,0.0114

row,Sequence,PBM E-score
1,AAAGGCCA,-0.188
2,ACCAGTAA,0.0203
3,ACATTACA,0.048
4,AAACTGTG,-0.0191
5,GGCCTCAC,-0.251
6,AGGCGCTC,-0.258
7,GATGACAA,-0.0714
8,GCGAACAC,-0.193
9,CCTTGCAG,-0.228
10,TAACTCAA,0.263
11,ATATGCGA,-0.0316
12,ATCTGCTG,0.0771
13,CCAGGGGC,-0.302
14,CTCCCCCA,-0.16
15,CTCACCTC,0.108
16,CCTCGGGC,-0.0902
17,AACGACGG,-0.176
18,CCACATTA,-0.0329
19,ACGGAGGA,-0.108
20,CGCGAGTA,0.0526
21,CATTGTGA,0.0944
22,ACCAGACA,-0.192
23,CTAGTCGA,0.214
24,GACCATGA,0.157
25,CTGAACCA,0.258

row,Sequence,PBM E-score
1,TGAATCCA,0.256
2,CAACGAGC,-0.162
3,GTCCAAAA,0.0165
4,AATCGTGC,0.137
5,AAAAAGTC,0.224
6,AACGACAT,-0.129
7,TGCAGACA,-0.0271
8,AAGGCTGC,-0.207
9,CTTTCAGA,0.0329
10,CGACGGCG,-0.121
11,CGCCAATA,-0.173
12,ACTTACCT,-0.00383
13,AATGCCTA,-0.329
14,GAAGTAAA,0.0818
15,TCATGGGA,0.138
16,AGTGAGAC,0.283
17,CTAGGCGC,-0.175
18,CGAGTCAG,0.46
19,CTATACCA,-0.0379
